# Measured values as given in the supplement of paper PMC3334620.
# In all, about 33,000 sequences were measured (“E-score (-0.5 to 0.5)”: median about -0.043, highest 2% from about 0.37 on). Some of the results follow.
# Target: T1, Upc2 (UniProt Q12151)
# T1 sequence: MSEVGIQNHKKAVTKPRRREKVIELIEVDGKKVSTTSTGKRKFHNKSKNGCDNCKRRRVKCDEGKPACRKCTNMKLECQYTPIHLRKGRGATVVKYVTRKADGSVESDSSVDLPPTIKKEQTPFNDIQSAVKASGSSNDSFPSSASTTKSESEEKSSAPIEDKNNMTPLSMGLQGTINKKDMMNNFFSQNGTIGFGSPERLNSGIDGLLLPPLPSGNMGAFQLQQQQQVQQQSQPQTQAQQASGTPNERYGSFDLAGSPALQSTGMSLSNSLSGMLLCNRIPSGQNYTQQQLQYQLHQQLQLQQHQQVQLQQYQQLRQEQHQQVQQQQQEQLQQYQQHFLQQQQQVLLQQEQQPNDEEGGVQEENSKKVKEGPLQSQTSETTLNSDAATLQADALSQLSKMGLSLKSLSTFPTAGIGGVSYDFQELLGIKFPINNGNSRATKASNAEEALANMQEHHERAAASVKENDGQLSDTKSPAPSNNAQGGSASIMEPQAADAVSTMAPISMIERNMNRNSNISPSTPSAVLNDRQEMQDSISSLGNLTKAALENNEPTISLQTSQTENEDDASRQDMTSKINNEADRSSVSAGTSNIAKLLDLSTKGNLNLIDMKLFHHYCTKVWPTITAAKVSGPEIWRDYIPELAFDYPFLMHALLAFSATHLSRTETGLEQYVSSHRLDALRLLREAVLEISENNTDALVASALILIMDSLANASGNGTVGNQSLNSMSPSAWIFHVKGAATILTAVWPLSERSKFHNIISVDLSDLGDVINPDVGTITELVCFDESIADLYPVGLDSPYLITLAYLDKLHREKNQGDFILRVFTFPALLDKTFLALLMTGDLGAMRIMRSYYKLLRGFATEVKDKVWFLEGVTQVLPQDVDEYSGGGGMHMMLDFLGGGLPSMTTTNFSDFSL
# Assay: PBM E-score (8-mer binding enrichment) (E-score (-0.5 to 0.5)); higher = stronger / more preferred TF binding; most listed sequences are background and not binding sites
# Conditions: protein concentration: 200 nM; construct: GST-full length
# Procedure, shortened: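 Universal all-10-mer Agilent arrays, fresh or stripped once, were converted to double-stranded form by primer extension. GST-tagged yeast transcription factors from PURExpress in vitro transcription/translation, full-length or DNA-binding domain only, were applied at about 100-200 nM and detected with fluorescent anti-GST. After masliner normalisation, the Universal PBM Analysis Suite scored each ungapped eight-base word together with its reverse complement by E-score.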
row,Sequence,PBM E-score
1,AAACTTCC,-0.188
2,AACGCGTT,0.248
3,GTTCCCCA,0.151
4,TAGGAACA,-0.141
5,GATGTGAA,0.135
6,AACGCGTC,0.159
7,AAAACATC,-0.0769
8,CAACAGAG,-0.265
9,GCGAAATA,0.0512
10,CCATACCC,0.0447
11,CGGAGACA,0.0386
12,CTGTGGGC,-0.0385
13,GGCACCGA,-0.169
14,CTGGGAGC,-0.117
15,AGGAGGGC,-0.199
16,CCATTCCA,-0.279
17,ACCCTTAT,-0.00308
18,CCCCCGGA,-0.311
19,AATCGCGC,-0.0864
20,AAAATTCG,0.0439
21,CGCGGTGA,-0.0344
22,GAAGCAAC,-0.131
23,CCTCCCCG,0.0377
24,TAACCGCA,0.0604

row,Sequence,PBM E-score
1,CGATCAAA,-0.0198
2,AGGAATTA,0.0253
3,ATGCTTGG,-0.148
4,CTACGAGA,0.359
5,ATCGATCC,-0.00332
6,CATGCGCG,0.0164
7,AAGAAGTC,-0.0794
8,ATTTTTCA,0.011
9,AGAAGAGA,-0.177
10,GCGACCGA,0.111
11,AACTTCCC,0.0684
12,GGGTTAAA,0.0764
13,AATGGAGC,-0.0993
14,GGTCCGAC,-0.0192
15,CAGTTTCG,0.0699
16,CTTCTGTA,0.0315
17,GCCGCGGC,0.167
18,AACGCACA,0.124
19,ATCATGGA,-0.238
20,CGAGAAAG,0.127
21,AAGTTTGC,-0.00016
22,CGAGCAGA,0.0766
23,AACTCGTA,0.455
24,CGCTCTGC,0.112

row,Sequence,PBM E-score
1,ATTTCCTC,-0.0745
2,CATAGCGG,-0.0762
3,GGGACTCA,-0.284
4,TCGCACGA,0.0732
5,CAGATTCG,-0.0377
6,CCAGACCC,-0.192
7,ACCAGATG,-0.199
8,CCGAGGGA,0.00072
9,CGGGCCCC,-0.124
10,GGTGACAC,-0.312
11,AGGCGCCA,-0.196
12,AAAAACTT,-0.0704
13,CCTGCTCC,-0.0623
14,AATCATGA,0.0697
15,TCAAGACA,-0.286
16,AGTTTGGC,-0.015
17,AATAAAAG,0.0452
18,CCAAGTCA,-0.137
19,AATACAAG,0.00549
20,CAGCTCCA,-0.241
21,CCGCCCCC,-0.134
22,CTCGAAAC,0.0826
23,CAAACAGG,-0.0601
24,CAGCGGGC,-0.329

row,Sequence,PBM E-score
1,CTGTGGGA,-0.194
2,GCGATAGC,0.0279
3,TAGAGAAA,0.00343
4,CTAATTTC,0.0527
5,CAAATACA,-0.00056
6,GCTTCATA,-0.162
7,AAGCAAAA,-0.00335
8,CACACGGG,-0.277
9,CGTAAGGC,0.268
10,GAACCGCC,-0.0633
11,TCCCCGGA,-0.0623
12,CTAGTTTC,-0.0213
13,CGTTCGCC,0.227
14,CAGGGGAA,-0.11
15,ATCCGCAC,-0.0554
16,CACAATCA,-0.171
17,GGATACAC,0.00698
18,AGACGCAT,-0.0879
19,CCATAAAG,-0.136
20,ATCTTGCC,-0.0505
21,GACTTAGC,-0.159
22,ACTTGTAG,-0.131
